Reference: the supplement of paper PMC11417369
± gives the standard deviation of the averaged measurements. The list shows a part of the results.

System: PfAP2-EXP AP2 domain (GST-tagged)
Assay: gcPBM binding intensity (ln(normalized median fluorescence intensity)); higher = stronger DNA binding
Method in brief: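 Alexa488 anti-GST antibody, scanned at 488 nm, detected GST-tagged P. falciparum DNA-binding domains that had been expressed in E. coli and incubated for 1 h on an Agilent 4 × 180k array. The array carried primer-extended double-stranded 36-bp intergenic genomic probes and negative controls. Binding intensity is the highest Masliner-normalised natural-log median intensity across replicate spots of either orientation of each probe.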

“CATTTATATTATAAATGTACAAAGTTCGTTTGTTCC [XGTACX_site1305]” and “TATAAATTTAAAATGACACACACTAATATTATTTAA [CACACA_site8334]” are within error of each other in “gcPBM binding intensity (ln)” value: 8.49 ± 0.45 for the first, 8.53 ± 0.44 for the second.

“TGTCTTTAAATTTCTCAACACACAGTTATAAAAAAT [CACACA_site8930]” and “GGGTCAAGTAAGCTGTTCCTCTTTTTCTTTCTCACT [GTGCAC_negctrl_site473]” are within error of each other in “gcPBM binding intensity (ln)” value: 8.44 ± 0.4 for the first, 9.01 ± 0.52 for the second.

“ATACGATTGAAACATTGTACATGAATATAAAAAAAT [XGTACX_site5704]” and “TTTTTATTATTCTTAAGGATATAACAAAAAAGAAAA [XGTACX_negctrl_site584]” are within error of each other in “gcPBM binding intensity (ln)” value: 8.88 ± 0.47 for the first, 8.29 ± 0.38 for the second.

“ATTAATATTATTAGAAGTACTAATAGTAGTATAACT [XGTACX_site1325]” and TAAACGTTAGTATGTGTGCACATTAGTAATTTAAAA are within error of each other in “gcPBM binding intensity (ln)” value: 8.46 ± 0.35 for the first, 8.78 ± 0.071 for the second.

“TTCTAAAAAAATAAAATTATCAAGGTTTTTAAACGT [CACACA_negctrl_site308]” and “TCAAAGCACACATACACACACATATAGATTTATATA [CACACA_site6272]” are within error of each other in “gcPBM binding intensity (ln)” value: 8.5 ± 0.35 for the first, 8.54 ± 0.51 for the second.

“TAAATAAATATATATTCACACACAAACATATATATA [CACACA_site9332]” and “TCTTCATAAAAATAAAGTACATTATATATATAAATA [XGTACX_site3775]” are the same in “gcPBM binding intensity (ln)” value: 8.38 ± 0.3 for the first, 8.38 ± 0.42 for the second.

“GATTATATTATATATTAAATATAAATATGTATTATA [TGCATGCA_negctrl_site66]” and “GAAATATTTAGACACACACACAAACATATAAATATA [CACACA_site6980]” are within error of each other in “gcPBM binding intensity (ln)” value: 8.04 ± 0.42 for the first, 8.76 ± 0.57 for the second.

Compared with “ATGTTGTGTATATATACACACATACATATATATATA [CACACA_site8461]”, “AATGAGAAGGACTGCACACTAAAATGGAAGGAGAAA [CACACA_site1575]” is lower in “gcPBM binding intensity (ln)” value: 9.97 ± 0.25 for the first, 8.99 ± 0.44 for the second.

“AAAAAAAATTAAAATAAATTAAAAAGTAATTATATA [GTGCAC_negctrl_site615]” and “AATGGAAATGTAAAATGTACAGGACGCACACACATA [XGTACX_site7788]” are within error of each other in “gcPBM binding intensity (ln)” value: 8.1 ± 0.44 for the first, 8.62 ± 0.4 for the second.

“GAAAAAATTTTATGGTGTACTTTATTTATTTATATA [XGTACX_site6323]” and “TTATTACATGTTACTTAACACACATCTGGTGAAATA [CACACA_site7939]” are within error of each other in “gcPBM binding intensity (ln)” value: 8.6 ± 0.35 for the first, 8.63 ± 0.38 for the second.

“AAAATATAGTAATATATATATGTATATTATTTGTGG [CACACA_negctrl_site1590]” and “GGAAAGACAGTTCACAGTACCCAGTAAACTCTACGG [XGTACX_site2557]” are within error of each other in “gcPBM binding intensity (ln)” value: 8.67 ± 0.55 for the first, 8.36 ± 0.42 for the second.

“TTTATATATGTAAATGCACACATATGTGTATATACT [CACACA_site8493]” and “TACCATGTTCAAATTACACACATATAATGTAATATA [CACACA_site5150]” are within error of each other in “gcPBM binding intensity (ln)” value: 8.72 ± 0.25 for the first, 8.37 ± 0.32 for the second.

“ATTAAGTTCAAATGTAGTACGTGTAAAAAAAAAAAA [XGTACX_site1578]” and “ATATATAATATTTTTATTTTTATTTTTTTTTTATGA [TGCATGCA_negctrl_site577]” are within error of each other in “gcPBM binding intensity (ln)” value: 8.73 ± 0.4 for the first, 8.02 ± 0.32 for the second.

Compared with “TATAGGTATATATTATGTACTTATAATTATATAGAT [XGTACX_site1912]”, “AAAATAAATAAATAAATAAATATATATATATATATA [XGTACX_negctrl_site345]” is higher in “gcPBM binding intensity (ln)” value: 8.52 ± 0.35 for the first, 10.1 ± 0.42 for the second.

First: TAATCTTTCGTACATGTACACACAGAAAAAAAAAAA [CACACA_site8798]
Second: TGCATGCATTATCATAGTACATATAATGTTGTATAA [XGTACX_site2775]
The “gcPBM binding intensity (ln)” value of the first is lower: 8.62 ± 0.34 for the first, 10.1 ± 0.18 for the second.

“TATTAAGTATTTTACGTACACACTTATAAATGTACA [CACACA_site3885]” and “ATTATTAAGTTTCACAAGAACATTGTTAACAATTTT [CACACA_negctrl_site1128]” are the same in “gcPBM binding intensity (ln)” value: 8.46 ± 0.35 for the first, 8.46 ± 0.38 for the second.

“TATAAGGTGTCCTATACACACTCCAATAGATATATA [CACACA_site7066]” and “AATTTATATTTTCGTAGTACGTATTTTATTCTTTTG [XGTACX_site4162]” are within error of each other in “gcPBM binding intensity (ln)” value: 8.37 ± 0.39 for the first, 8.78 ± 0.39 for the second.

First: ATTACATGCAATATATGTACGTAATATATATATATA [XGTACX_site2300]
Second: CTGAACCCGTTATGGTGTACATAAAATAAGACACAG [XGTACX_site3484]
The “gcPBM binding intensity (ln)” value of the first is higher: 9.91 ± 0.38 for the first, 8.67 ± 0.26 for the second.

AAAGACGCAAAATTGGTGCGCTGCTTTTAGCATTTT and “AAAAAAAAAAAGTACACACATACATATAAATATATA [CACACA_site1809]” are within error of each other in “gcPBM binding intensity (ln)” value: 8.61 ± 0.25 for the first, 8.43 ± 0.47 for the second.

“ATTTATATCCTTAAACGTACATTGTATTGTATTTTA [XGTACX_site6080]” and “ACAGAATATTTAATTCAACACACATACATATTTATT [CACACA_site8734]” are within error of each other in “gcPBM binding intensity (ln)” value: 8.71 ± 0.35 for the first, 8.22 ± 0.39 for the second.

“AATAATCATGATCAAAGTACTTATGAATACCAAAAA [XGTACX_site2572]” and “GCATCCCTTTTTATGTGTACATACAAAGGCAATTAC [XGTACX_site6977]” are within error of each other in “gcPBM binding intensity (ln)” value: 8.8 ± 0.37 for the first, 8.86 ± 0.33 for the second.

Compared with “TATTGTTTTAAAGAGACATGCAATATATATTATTCC [TGCATGCA_site752]”, “AAAATATAAATCTAAGCATGCAAAAAAAATTTATAA [TGCATGCA_site1008]” is higher in “gcPBM binding intensity (ln)” value: 8.76 ± 0.38 for the first, 9.58 ± 0.2 for the second.

In the case of “AATAATAATAGTAATATGTACATATATATATATATA [TGCATGCA_negctrl_site542]”, the “gcPBM binding intensity (ln)” value is reported as 10.1 ± 0.33.
